Measurements from patent publication US8518997B2, “4-(phenoxyalkyl)thio)-phenoxyacetic acids and analogs” (Janssen Pharmaceutica N.V., priority 2003, dated 2013).
Some entries of the source have several records that differ or are many. They are shown here; other results are not. The source may hold further records. Values given together read as repeated measurements on other runs, samples or individuals; one of them may be the mean. Brackets with × say how often a value occurs here.

molecular target: T1, PPAR delta (Homo sapiens, UniProt Q03181); assay: Transfection assay for PPAR receptors (PPAR-Gal4 / Gal4-Luciferase reporter in HEK293 cells); type: cell-based; details: HEK293 cells co-transfected with PPAR-Gal4 (δ) receptor and Gal4-Luciferase reporter, 24 hours; multiple EC50's = multiple measurements; Table 2
T1 sequence (Q03181 171-441 limits assumed): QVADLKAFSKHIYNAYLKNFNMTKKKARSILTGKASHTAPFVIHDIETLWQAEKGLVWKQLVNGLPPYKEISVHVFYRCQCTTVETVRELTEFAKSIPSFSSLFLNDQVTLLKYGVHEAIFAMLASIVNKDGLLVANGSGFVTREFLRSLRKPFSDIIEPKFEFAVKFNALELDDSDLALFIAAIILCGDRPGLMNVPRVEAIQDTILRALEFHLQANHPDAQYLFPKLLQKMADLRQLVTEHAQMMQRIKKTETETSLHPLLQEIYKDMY
Experimental: Transfection Assay Method for PPAR Receptors
HEK293 cells were grown in DMEM/F-12 Media supplemented with 10% FBS and glutamine (GIBCOBRL). The cells were co-transfected with DNA for PPAR-Gal4 (PPARα, γ or δ) receptor and Gal4-Luciferase Reporter using the DMRIE-C Reagent. On the following day, the medium was replaced with 5% Charcoal treated FBS growth medium. After six hours, cells were trypsinized and seeded at a density of 50,000 cell/well into 96 well plates and incubated overnight at 37° C. in a 5% CO2 incubator. Cells were then treated with test compounds or vehicle and incubated for 24 hours at 37° C. in a 5% CO2 incubator. Luciferase activity was assayed using the Steady-Glo Luciferase Assay Kit from Promega. […] Steady-Glo Luciferase Assay Kit was purchased from Promega Part# E254B.

Structure (SMILES) | EC50
COCO[C@H](COc1ccc(C(F)(F)F)cc1)CSc1ccc(OCC(=O)O)c(C)c1 [Compound 22, (R)-{4-[2-Methoxymethoxy-3-(4-trifluoromethyl-phenoxy)-propylsulfanyl]-2-methyl-phenoxy}-acetic acid] | 1.3, 2.6, 1.4, 2.1, 4.2, 2.3 nM [one cell]
C=CCO[C@H](COc1ccc(C(F)(F)F)cc1)CSc1ccc(OCC(=O)O)c(C)c1 [Compound 20, (R)-{4-[2-Allyloxy-3-(4-trifluoromethyl-phenoxy)-propylsulfanyl]-2-methyl-phenoxy}-acetic acid] | 3.4 nM, 14.6 nM, 1.4 nM [one cell]
CC[C@H](COc1ccc(C(F)(F)F)cc1)CSc1ccc(OCC(=O)O)c(C)c1 [Compound 2, {2-Methyl-4-[2-(4-trifluoromethyl-phenoxymethyl)-butylsulfanyl]-phenoxy}-acetic acid] | 0.02, 0.33, 0.03, 0.47, 1.5 nM [one cell]
CCOC(CCc1ccc(C(F)(F)F)cc1)CSc1ccc(OCC(=O)O)c(C)c1 (centres unmarked) [Compound 38, {4-[2-Ethoxy-4-(4-trifluoromethyl-phenyl)-butylsulfanyl]-2-methyl-phenoxy}-acetic acid] | 6.9, 7.7, 19.7, 6.5, 4.6 nM [one cell]
CCCC(COc1ccc(C(F)(F)F)cc1)CSc1ccc(OCC(=O)O)c(C)c1 (centres unmarked) [Compound 5, {2-Methyl-4-[2-(4-trifluoromethyl-phenoxymethyl)-pentylsulfanyl]-phenoxy}-acetic acid] | 0.02, 0.08, 0.04, 0.01, 0.36 nM (2×) [one cell]
